Results from PubChem BioAssay AID488969 (Vanderbilt High Throughput Screening Facility, 2010).
In all, about 110,000 compounds were measured (“z-score”: median about -0.1, highest 2% from about 2 on). The list shows a part of the results.

The compounds below were run against Metabotropic glutamate receptor 8 (Rattus norvegicus) (UniProt P70579) (assay: rat mGluR8 modulators via GIRK flux, primary screen, cell-based, thallium flux, HTS (AID 488969)). Settings: HEK293 rat mGluR8, GIRK (G protein-gated inwardly rectifying potassium channel) thallium flux, FluoZin2; at 10 µM; stronger effect = higher value; submaximal glutamate (EC20) added with thallium.
Sequence of UniProt P70579 (P70579 whole entry, looked up): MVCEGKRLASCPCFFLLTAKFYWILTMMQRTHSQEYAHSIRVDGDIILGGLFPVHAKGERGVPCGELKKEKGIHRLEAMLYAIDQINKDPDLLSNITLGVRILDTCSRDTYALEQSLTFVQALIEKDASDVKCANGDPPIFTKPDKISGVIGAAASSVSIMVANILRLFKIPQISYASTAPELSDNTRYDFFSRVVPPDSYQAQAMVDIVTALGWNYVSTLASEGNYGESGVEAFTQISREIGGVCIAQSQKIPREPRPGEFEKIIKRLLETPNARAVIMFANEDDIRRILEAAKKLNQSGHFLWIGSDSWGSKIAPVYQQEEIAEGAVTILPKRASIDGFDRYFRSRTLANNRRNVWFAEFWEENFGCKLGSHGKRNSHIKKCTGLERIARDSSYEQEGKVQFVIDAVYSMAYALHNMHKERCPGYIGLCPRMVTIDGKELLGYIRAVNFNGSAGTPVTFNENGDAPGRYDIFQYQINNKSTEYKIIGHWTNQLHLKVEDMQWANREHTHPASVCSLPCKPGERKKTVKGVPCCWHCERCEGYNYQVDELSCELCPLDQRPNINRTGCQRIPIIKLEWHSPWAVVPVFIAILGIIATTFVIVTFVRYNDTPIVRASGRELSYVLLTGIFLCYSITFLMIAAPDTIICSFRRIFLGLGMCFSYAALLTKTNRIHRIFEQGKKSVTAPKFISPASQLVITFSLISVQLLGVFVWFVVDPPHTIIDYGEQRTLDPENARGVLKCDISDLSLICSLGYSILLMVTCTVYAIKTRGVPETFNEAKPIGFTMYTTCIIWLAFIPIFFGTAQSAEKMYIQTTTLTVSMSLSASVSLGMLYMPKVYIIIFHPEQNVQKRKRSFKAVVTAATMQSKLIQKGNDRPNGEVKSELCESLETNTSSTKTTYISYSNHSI

Row | Structure (SMILES) | z-score
1 | Cc1ccccc1C(=O)NC(=S)Nc1ccc(Oc2ccc(Cl)cc2)cc1 | 2.74
2 | COc1ccc(C(=O)Nc2nnc(-c3cccs3)s2)cc1 | -0.0882
3 | Cn1c(N2C(=O)CC(Cc3ccccc3)C2=O)nc2ccccc21 (stereo not drawn) | -0.0941
4 | Cn1cnnc1SCc1nc(N)nc(Nc2ccccc2)n1 | -0.167
5 | CCOC(=O)C1CCN(C(=O)Cc2c(C(=O)O)n(C)c3ccccc23)CC1 | -0.00284
6 | Cc1ccccc1C(=O)NC1CCN(Cc2nnnn2CCc2ccccc2)CC1 | -0.0124
7 | CC(C)Oc1cccc(C(=O)Nc2ccc(CN3CCOCC3)cc2)c1 | -0.248
8 | Cc1ccc(S(=O)(=O)N(C)CC(=O)Nc2ccncc2)cc1 | 0.186
9 | CCC(C)(C)NC(=O)C(c1cccs1)N(CC1CCCO1)C(=O)Cn1nnc2ccccc21 (stereo not drawn) | 0.00257
10 | OCCn1nc2c3ccccc3nc-2n(-c2ccccc2)c1=S | 0.797
11 | Cc1ccc(NC2=C(NC(=O)c3ccccc3)C(=O)c3ccccc3C2=O)cc1Cl | -0.235
12 | CC(=O)c1cccc2c(O)c(C3=Nc4ccccc4C3=O)[nH]c12 | -0.493
13 | CCOc1ccc2[nH]c(C)c(CN3CCN(CC)CC3)c(=O)c2c1 | 0.635
14 | O=C(C1CCC(C(=O)N2CCc3ccccc32)CC1)N1CCc2ccccc21 (stereo not drawn) | -0.247
15 | COc1cc(C(=O)OCC(=O)Nc2cc(C)on2)ccc1OCc1ccccc1Cl | 0.416
16 | CN1C(=O)/C(=C/c2ccccc2OCc2cccc(F)c2)NC1=S | 0.125
17 | CC(C)Cc1csc(NC(=O)c2ccccc2Cl)c1C(=O)O | 0.0535
18 | CCOC(=O)C1C(c2ccccc2)C(C(=O)OCC)C1c1ccccc1 (stereo not drawn) | 0.11
19 | CCOC(=O)c1c(C)[nH]c(C(=O)OCC(=O)N2CC(C)OC(C)C2)c1C (stereo not drawn) | -0.0159
20 | Cc1ccc(C(=O)CSc2ccccn2)cc1 | 0.961
21 | Cc1ccc(OCC(O)CNS(=O)(=O)c2ccccc2C(=O)O)cc1 (stereo not drawn) | 0.372
22 | Cc1c(CCO)sc[n+]1CC(=O)OC12CC3CC(CC(C3)C1)C2 | -0.0737
23 | COc1ccc(-n2c(=O)c3c4c(sc3n3c(C)nnc23)COC(C(C)C)C4)cc1 (stereo not drawn) | -1.78
24 | CC(=O)c1ccc(NC(=O)Nc2ccc([N+](=O)[O-])cc2C)cc1 | 0.0689
25 | CCOc1ccc(NS(=O)(=O)c2ccc3[nH]cc(C(=O)NCCOC)c(=O)c3c2)cc1 | 0.292

Row | Structure (SMILES) | z-score
26 | Cn1c(SCc2nc3ccccc3[nH]2)nnc1-c1ccccn1 | -0.342
27 | COc1ccc(-c2cnnn2-c2ccc(N)cc2)cc1OC | 0.24
28 | CC1CC(C)CN(S(=O)(=O)c2ccc(F)c(C(=O)Nc3ccc(Cl)cc3F)c2)C1 (stereo not drawn) | -0.0978
29 | O=C(Nc1nccs1)c1cccc(N2C(=O)c3cccc4c([N+](=O)[O-])ccc(c34)C2=O)c1 | -0.449
30 | O=C(Nc1ncccc1Cl)c1ccccc1F | -0.685
31 | CCOC(=O)C1CCN(C(=O)CCc2c(C)nc3cc(-c4ccccc4)nn3c2C)CC1 | -0.548
32 | Cc1cccc(NC(=O)C2CCN(S(=O)(=O)c3cccs3)CC2)n1 | -0.0808
33 | Cc1sc(NC(=O)c2cccc([N+](=O)[O-])c2)c(C(N)=O)c1-c1ccc(C(C)(C)C)cc1 | -0.0995
34 | Cc1ccc(/C=N/Nc2nc(C(C)(C)C)cs2)o1 | -0.109
35 | Cc1c(CN(C)C(=O)c2nn(C)cc2[N+](=O)[O-])cnn1C | -0.232
36 | O=C(Nc1ccccn1)c1cccs1 | 1.07
37 | CN(C)c1ccc(N/C=C/C(=O)c2ccco2)cc1 | -0.26
38 | CCCn1nnc(NC(=O)c2ccc(Cl)cc2Cl)n1 | -0.0896
39 | C/C(=N\NC(=O)c1ccc(C)cc1C)c1ccc2c(c1)OCO2 | -0.785
40 | Cc1sc(-c2ccncc2)nc1OC(=O)c1ccc(Cl)cc1 | -0.12
41 | CSc1nnnn1-c1ccc(C(=O)O)cc1 | -0.129
42 | Cc1ccc(NC(=O)CCCN2C(=O)c3cccc4cccc(c34)C2=O)cc1 | -0.258
43 | Cc1cc(NC(=O)c2ccc3c(c2)C(=O)N(CCC(C)C)C3=O)no1 | 0.184
44 | CSc1nc(Oc2ccc(Cl)cc2)c2sccc2n1 | -0.00455
45 | CCC(C)(C)n1nnnc1C(c1cc2ccc(C)cc2[nH]c1=O)N(Cc1cccnc1)Cc1ccco1 (stereo not drawn) | -0.42
46 | CCOC(=O)N1CCN(c2c(NCCc3ccccc3)c(=O)c2=O)CC1 | 0.00926
47 | CC(=O)Nc1ccn(-c2ccccc2)n1 | 0.0787
48 | CCCCc1ccc(-c2ccc(Br)cc2O)nc1 | -0.337
49 | O=C(O)CCCCCNc1nc(=S)[nH]c2ccccc12 | 0.209
50 | Cc1nnc(N2CCN(Cc3ccccc3)CC2)[nH]c1=O | -1.08

Row | Structure (SMILES) | z-score
51 | Cc1ccc(S(=O)(=O)c2cc3ccccc3oc2=Nc2ccc3c(c2)OCCO3)cc1 | -0.356
52 | CCOC(=O)c1[nH]cc(-c2ccccc2)c1N1CCOCC1 | 0.239
53 | Cc1noc(N)c1C(=O)Nc1ccccc1F | 0.0468
54 | CCn1c(SCC(=O)N2CCCc3ccccc32)nc2cccnc21 | -0.0554
55 | OCCN(Cc1ccccc1)Cc1cccc(C(F)(F)F)c1 | 0.4
56 | CCOC(=O)c1ccc(NC(=S)N2CCSC2c2ccc(Br)cc2)cc1 (stereo not drawn) | 0.308
57 | Cc1ccc(NC(=O)N/C=C/c2ccco2)cc1C | -0.78
58 | COc1ccc(-c2nc(SC)n(S(=O)(=O)c3ccccc3)n2)cc1 | -0.162
59 | Cc1nc2ccccc2cc1OCc1ccc(F)cc1 | -0.0149
60 | Cc1cc(C)n2nc(SCC(=O)c3ccccc3)nc2n1 | -1.75
61 | Cc1ccc(NC(=O)c2ccccc2)cc1OC(=O)c1ccccc1 | -0.219
62 | Cn1ncc2c(N3CCOCC3)ncnc21 | -0.172
63 | Cc1ccc(S(=O)(=O)N=Nc2c(O)[nH]c3ccccc23)cc1 | 0.0879
64 | COc1ccc(-c2csc(N3CCC(C(N)=O)(N4CCCCC4)CC3)n2)cc1 | 0.829
65 | CCN(CC)Cc1cc(C(C)=O)ccc1O | 0.0348
66 | CCCCSc1cc(=O)n(-c2ccccc2)nc1C(=O)OCC | -0.331
67 | Cc1cc(S(=O)(=O)N2CCN(c3ccc(F)cc3)CC2)c(C)s1 | -0.128
68 | C=CCOc1ccc(C2C(C(=O)c3ccco3)=C(O)C(=O)N2Cc2cccnc2)cc1 (stereo not drawn) | 0.0252
69 | O=C(Nc1cccc2c1CCCC2)c1cc([N+](=O)[O-])ccc1Cl | -0.115
70 | CC(C)CN(C(=O)CN1CCN(c2ccccc2O)CC1)c1c(N)n(CC(C)C)c(=O)[nH]c1=O | -0.136
71 | OC(COc1ccc2c(c1)OCO2)CN1CCc2ccccc2C1 (stereo not drawn) | -1.14
72 | CCCC(=O)Nc1cc(S(=O)(=O)N(CC)CC)ccc1Cl | -0.29
73 | COCCNC(=O)c1ccc2c(=O)n(CCOC)c(=O)[nH]c2c1 | -0.446
